Reference: patent US20200400567A1, “FUSION POLYPEPTIDE” (PEKING UNIVERSITY, priority 2017, published 2020)

B1: GRAB-DA-Cter580: GRAB-ACh-Cter580 C-terminus from C2 site inserted after 441 L of DRD2, SEQ ID NO: 18 (protein)
chain: METDTLLLWVLLLWVPGSTGDTSLYKKVGTDPLNLSWYDDDLERQNWSRPFNGSDGKADRPHYNYYATLLTLLIAVIVFGNVLVCMAVSREKALQTTTNYLIVSLAVADLLVATLVMPWVVYLEVVGEWKFSRIHCDIFVTLDVMMCTASILNLCAISIDRYTAVAMPMLYNTRYSSKRRVTVMISIVWVLSFTISCPLLFGLNNADQNECIIANPAFVVYSSIVSFYVPFIVTLLVYIKIYIVLRRRRKRVNTKRSSRAFRAHLRAPLKGNCTHPEDMKLCTVIMKSNGSFPVNRRRVEAARRAQELEMEMLSSTSPPERTRYSPIPPSHHQLTLPDPSHHGLHSTPDSPAKPEKNGHAKDHPKIAKIFEIQTMPNGKTRTSLKTMSRRKLSQQKEKKATQMLAIVLGVFIICWLPFFITHILNIHCDCNIPPVLYSAFTWLGYVNSAVNPIIYTTFNIEFRKAFLKILRRKQQYQQRQSVIGGNVYIKADKQKNGIKANFHIRHNIEDGGVQLAYHYQQNTPIGDGPVLLPDNHYLSVQSKLSKDPNEKRDHMVLLEFVTAAGITLGMDELYKGGTGGSMVRKGEELFTGVVPILVELDGDVNGHKFSVSGEGEGDATYGKLTLKFICTTGKLPVPWPTLVTTLTYGVQCFSRYPDHMKQHDFFKSAMPEGYIQERTIFFKDDGNYKTRAEVKFEGDTLVNRIELKGIDFKEDGNILGHKLEYNGGAAAFHKRAPEQALVFAAVKDTILQLNLKEYNLVKSRITSEGEYIPLDQIDINVNSFCYENEVALT
modifications: GRAB-DA-Cter580
B2: GRAB-NE2.2: GRAB-NE2.1 with T373K mutation, SEQ ID NO: 24 (protein)
chain: METDTLLLWVLLLWVPGSTGDTSLYKKVGTTGGSLQPDAGNASWNGTEAPGGGARATPYSLQVTLTLVCLAGLLMLLTVFGNVLVIIAVFTSRALKAPQNLFLVSLASADILVATLVIPFSLANEVMGYWYFGKAWCEIYLALDVLFCTSSIVHLCAISLDRYWSITQAIEYNLKRTPRRIKAIIITVWVISAVISFPPLISIEKKGGGGGPQPAEPRCEINDQKWYVISSCIGSFFAPCLIMILVYVRIYQIAKRRTRVPPSRRGPDAVAAPPGGTERRPNGLGPERSAGPGGAEAEPLPTQLNGAPGEPAPAGPRDTDALDLEEGGNVYIKADKQKNGIKANFHIRHNIEDGGVQLAYHYQQNTPIGDGPVLLPDNHYLSVQSKLSKDPNEKRDHMVLLEFVTAAGITLGMDELYKGGTGGSMVRKGEELFTGVVPILVELDGDVNGHKFSVSGEGEGDATYGKLTLKFICTTGKLPVPWPTLVTTLTYGVQCFSRYPDHMKQHDFFKSAMPEGYIQERTIFFKDDGNYKTRAEVKFEGDTLVNRIELKGIDFKEDGNILGHKLEYNTGAAARWRGRQNREKRFKFVLAVVIGVFVVCWFPFFFTYTLTAVGCSVPRTLFKFFFWFGYCNSSLNPVIYTIFNHDFRRAFKKILCRGDRKRIVL
modifications: GRAB-NE2.2

How the values were obtained:
Assay type in all cases: cell-based
[1] = biological target: T1, G protein-coupled receptor (M3R, HRH1, OxtR, DRD2, B2AR, HTR4) (Homo sapiens, UniProt P14416); test: GRAB sensors with fluorescent protein at the GPCR C-terminus, perfusion with receptor agonists in HEK293T cells; conditions: 20 μM Dopamine
T1 construct: expressed in transfected cells; host or cells: HEK293T
T1 sequence (P14416 with tags, fused parts or gaps): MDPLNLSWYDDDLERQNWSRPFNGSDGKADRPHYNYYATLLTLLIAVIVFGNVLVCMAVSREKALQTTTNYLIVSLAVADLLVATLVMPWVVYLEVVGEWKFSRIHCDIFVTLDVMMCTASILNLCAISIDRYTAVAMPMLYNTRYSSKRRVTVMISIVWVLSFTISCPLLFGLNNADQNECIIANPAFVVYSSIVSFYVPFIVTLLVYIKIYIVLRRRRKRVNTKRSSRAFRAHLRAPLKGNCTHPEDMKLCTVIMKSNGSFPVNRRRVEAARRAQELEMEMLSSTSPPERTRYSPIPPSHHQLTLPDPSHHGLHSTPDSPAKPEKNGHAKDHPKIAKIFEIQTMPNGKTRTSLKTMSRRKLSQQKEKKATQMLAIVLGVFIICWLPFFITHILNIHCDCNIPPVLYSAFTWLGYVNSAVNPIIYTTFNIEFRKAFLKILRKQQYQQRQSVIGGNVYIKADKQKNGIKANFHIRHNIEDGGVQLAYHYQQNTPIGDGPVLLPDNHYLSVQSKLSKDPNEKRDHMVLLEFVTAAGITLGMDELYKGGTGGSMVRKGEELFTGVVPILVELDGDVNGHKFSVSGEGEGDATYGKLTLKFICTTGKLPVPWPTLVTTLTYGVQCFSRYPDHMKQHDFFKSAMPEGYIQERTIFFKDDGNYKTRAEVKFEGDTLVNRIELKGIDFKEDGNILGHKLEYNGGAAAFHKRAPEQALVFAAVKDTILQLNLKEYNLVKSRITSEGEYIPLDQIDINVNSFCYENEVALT
Description: Based on the previously constructed acetylcholine fluorescent sensor GRAB-ACh2.0, the portion of the polypeptide linkers and cpEGFP in the third intracellular loop was inserted after the position 580 of the C-terminus sequence of the human muscarinic acetylcholine receptor M3R protein, and Gq20 peptide segment and TS and ER export sequences were connected to the end of the M3R protein to obtain a fusion peptide acetylcholine sensor GRAB-ACh-Cter580 with a fluorescent protein fused at the C-terminus.
Next, the method of constructing a chimeric receptor was used to construct fusion polypeptide sensors with a fluorescent protein at the C-terminus of different G protein-coupled receptors. The three sites, K567, R568 and R569, at the C-terminus of GRAB-ACh-Cter580 were selected as the cutting sites and labeled as C1, C2 and C3, respectively. After cutting, the multiple C-terminus sequences containing fluorescent protein were fused to HRH1 (SEQ ID NO: 27), OxtR (SEQ ID NO: 29), DRD2, B2AR, and HTR4 (SEQ ID NO: 28) at specific positions, respectively. Changes in signal generated by these fusion polypeptides in perfusion experiments with corresponding receptor agonists were observed.

human ADRA2A receptor [2] = conditions: NE dose-dependent curve; read-out: ligand affinity
Procedure: The perfusion system was set on a microscope, and including a solution-introduced system, an imaging cell, and a suction pump. During the perfusion process, the imaging cell was placed above the objective lens of the inverted microscope, and the slide with cultured cells was placed in the cell. The perfusion experiments of different drugs were performed by controlling the switches of the different pipes of the solution-introduced system. The perfusion speed was set to one drop or so per second. In order to ensure the stability of the focal plane, the liquid level was kept constant at all times, and the flow rate of each solution was adjusted accordingly. The aspiration speed was adjusted to maintain the liquid level in the cell over the slide. […]
After the end of the program, the time-fluorescence intensity data sheet was exported. The background was subtracted from the ROI to get the corresponding fluorescence value Ft, and the average value of the fluorescence value before adding the drug was used as the starting fluorescence F0 to calculate […]
Fluorescence imaging data was processed using ImageJ software. For the fluorescence performance of GRAB sensors in HEK293T cells and neurons, the entire cell body was selected as the data processing region. The change in the fluorescence signal was usually indicated by its relative intensity change. […]

human ADRA2A receptor [3] = test: Response kinetics of GRAB-NE2.2 by photolysis of NPEC-caged-NE; conditions: 405 nm photolysis of 100 μM NPEC-NE

Molecule	change (decrease) in fluorescence signal [1]	EC50 (human ADRA2A receptor [2])	change in fluorescence signal (human ADRA2A receptor [3])
B1	20%	–	–
B2	–	~100 nM	20%
